Results published in the supplement of paper PMC11417369.
Some of the results follow.

Tested on: PF3D7_0420300 AP2 domain 1 (GST-tagged)
Test: gcPBM binding intensity (ln(normalized median fluorescence intensity)); higher = stronger DNA binding
Summary of the method: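 Alexa488 anti-GST antibody, scanned at 488 nm, detected GST-tagged P. falciparum DNA-binding domains that had been expressed in E. coli and incubated for 1 h on an Agilent 4 × 180k array. The array carried primer-extended double-stranded 36-bp intergenic genomic probes and negative controls. Binding intensity is the highest Masliner-normalised natural-log median intensity across replicate spots of either orientation of each probe.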

Sequence	gcPBM binding intensity (ln)
TAGATACATAAACACACACACACATACATATATACA [CACACA_site9139]	10.3
TTTTGACTAATATAATATGTTAAGAATTAATAAATA [XGTACX_negctrl_site35]	8.8
AAAAAAAAAAAAAACACACACATATATATAATATAT [CACACA_site3172]	9.79
AAGTATAGTCTTACATATATATATATATATATATAT [GTGCAC_negctrl_site280]	9.15
ATAAAACAAAGACACACACACATACACAAAAAAAAA [CACACA_site7752]	10.2
TATCTACTTAAATAAAATAAAAATAATAAATAAAAA [TGCATGCA_negctrl_site312]	9.13
AATAATCATGATCATAGTACGTATGAATACAAAAAA [XGTACX_site265]	9.35
ATGTATAATATTTTCACACACAAGAAAAAAGAAAAG [CACACA_site3591]	9.72
CGTATGTATATATATATACACACTTCTGTGATACGA [CACACA_site1949]	9.33
TTTTATTTATTCCTACTTTTTTATTTATTTATTTAA [XGTACX_negctrl_site415]	9.42
ACATTATGTCATAAATGTACACATACATATACATAC [XGTACX_site8998]	9.35
AAATGAATTTAACAATGTACACATATATTATAAATA [XGTACX_site1449]	9.16
TAAGTCAAAACTTTTTTTTCTAAATTTCCATAATTA [GTGCAC_negctrl_site29]	8.78
ATATACATTCTATATACATGCATACTTCATTTTGTG [TGCATGCA_site966]	9.54
ATATATATATGTATATGTACTCATTCTTCTGTGTTT [XGTACX_site5014]	9.57
AAAACGATTTTTTGCACACACATAATAAGCAGAACA [CACACA_site3871]	9.79
TACATAATAATAAGGCGTACATAAAAATTAAAAATT [XGTACX_site8769]	9.43
TCTTTATCCTTTCTCTTTTTATTAATTATAATATTC [TGCATGCA_negctrl_site584]	9.51
ATTATTTGTAATATAACACACACAAAAAAAGACTCG [CACACA_site8487]	9.77
ATTAATTATGTATTTCAACAAAGAAGTGTTATATAT [GTGCAC_negctrl_site215]	9.18
ATTATACCGTATTTTGCATGTAGTATTTTCATTTTA [TGCATGCA_site1021]	9.83
AAATGTACAGGACGCACACACATATATATATATATA [CACACA_site3674]	9.66

Sequence	gcPBM binding intensity (ln)
AAGGAAAATATTAACTGTACATATAAAATATATATA [XGTACX_site5310]	9.23
ATATATACCTAAGACACACACATATATATATATATA [CACACA_site764]	9.64
TATCATTTATATATGTGTACTTATTTATTTATTTAT [XGTACX_site7961]	9.5
AAAGAAAATTAAAAAGAACACACAAATATATATATA [CACACA_site9196]	9.67
ATTTATATATATTTATGTACGTATTAATTTTTTTTT [XGTACX_site3877]	9.48
AATGAATCCTTATATACACACATTATTATAGTATAG [CACACA_site7454]	9.57
ACGTAATTAATTCATCAGATATAATTAATAATAATA [XGTACX_negctrl_site550]	9.02
ATAAATTTTTTTTTTTTTTTTTTTCTTTTTCTTTGT [CACACA_negctrl_site1231]	9.03
ACTAAAGTGTATCACTGTACAATTCTTCTCTTTTTT [XGTACX_site8705]	9.23
AATATATTTGTGTATGTGCGCAGTGTGTAATTTATT [GTGCAC_site9765]	9.73
CATCTCATATTTTGAAGTACTAAGAAAAGATATAAA [XGTACX_site6867]	9.06
TCAATAATAACAAATGAACACACATATATATGAGCA [CACACA_site8663]	9.71
AGAAAAAAATAATGTACACACACATAGATGTTTATA [CACACA_site4271]	9.63
AAAAAAAAAAAAAAAAGTACACAGTAGAATTAAATG [XGTACX_site1843]	9.5
TTTTTTTTTTAATTAACACACATAAATATATATATA [CACACA_site3275]	9.26
ATAAGTAAATTAGATACACACATGATATCATACATA [CACACA_site1623]	9.51
GAACAATAAATAAAAAAAATAAAAATAAAAATAAAA [TGCATGCA_negctrl_site35]	9.2
TGAAATACGAATTATTGTACTTATGTGTAAGATGGC [XGTACX_site4472]	9.43
AAAGAAAGTACCTTCACACATATAAGAATATAATAT [CACACA_site5214]	9.27
AAAAAAAAAATATATTGTACAAATAGATATGTCAAT [XGTACX_site122]	9.23
AATATATTTTAATATACACACATATATGCTCTTTAA [CACACA_site9371]	9.44
TTATTTTTTTTGTGTTGTACAATTTATTACTACTAA [XGTACX_site346]	9.35

Sequence	gcPBM binding intensity (ln)
AAACAAATATGTAGCACACATTCACATAATATATTT [CACACA_site2335]	9.4
TTATTTATGTGTAGGGCATGCAATCGTGTTTTTAAA [TGCATGCA_site735]	9.34
GTATTTATAATACGGCGTACATAAAAAAAAAAAAAA [XGTACX_site3705]	8.63
TAATATGCATAAAATTGTACAAACTTACATATAATA [XGTACX_site2752]	9.26
TTTTCTTGACCTATTATTCTTCTCATAGTATAATAT [GTGCAC_negctrl_site641]	9.3
TTCATAGAATTATATATTTTAAAAAAAAAAATAATT [CACACA_negctrl_site175]	8.83
TTTTTTATAGGACATGCATGTTGTAGAGCTGTATAT [TGCATGCA_site704]	9.21
TGTCAAAATATGTATACACACAATTTTTTTTTTTTT [CACACA_site2465]	9.44
ATTCATTTACCAATGGTGCAATATATTTTTATAATG	9.17
TATATTACTTATATTTGTACACAGAAATATAAATCA [XGTACX_site13]	8.95
TAATAAATAAAATAGAGTACAGGGATTTCATTAAAT [XGTACX_site8979]	9.46
TTTTTCATAAGAAGCACACAAAAAATGATAGAGAAT [CACACA_site1417]	9.46
TTTAAGCAAAGACACACACACATATTTATATTTATA [CACACA_site6295]	9.84
AAACATTTATACAAAGCACACAATTTTTAACTTTTA [CACACA_site2627]	9.16
AATAAAAAAAAAAAAAAAAAAAAAAACCTGAGGAGT [CACACA_negctrl_site1140]	9.29
AACCTTTTAAGAGTTGCACACGTACAAAAAAAAAAA [CACACA_site9159]	9.27
TTATAATATATATCTGCATGTTGCTTTGGGGCTTTA [TGCATGCA_site712]	9.19
TATATTAAACAATATACACACATTAATGTAGACATA [CACACA_site8889]	9.55
GAAAATTCTTAAGGCACACACATATAAGATATATAC [CACACA_site6410]	9.68
TTTCAGACAAAAAAAAAAAAAAAAAAGAGGAGAATA [CACACA_negctrl_site254]	9.01
TTTTTTTTTTTTTTTGTGCACAATATAATTTTTAAT [GTGCAC_site9747]	9.02
TATATATATATTAATAGTACATATTATGTAAGCCTA [XGTACX_site2826]	9.3

Sequence	gcPBM binding intensity (ln)
AAAAAATACATACATACACACATATATATATATATA [CACACA_site913]	9.79
TCCTCTTATAATTCGTGTCCACATATATCATACAAT [XGTACX_site1523]	9.4
ATAAAACAAATGAGTACACACACATAAAAATTGAAA [CACACA_site7949]	9.85
TACGGATATATATATTGTACATATATATAATATATA [XGTACX_site3156]	9.07
TTATTCATAAAAACAAAAAACAAAAATGAAATAGGA [CACACA_negctrl_site1123]	9.42
TATGATATAATATACACACATACATATATATATATA [CACACA_site510]	9.39
AGAGTTCTCCTATGCACACAAAAAACTTTCATTTAT [CACACA_site4193]	9.25
TTAATATTTTATTTCACACACATAAATGCCCCAAAC [CACACA_site1887]	9.66
TAAATAAAGATATATACACACATATTTATATTTATA [CACACA_site6431]	9.42
AAATAATTTTTATTTGTACACACATACATATATATT [CACACA_site8240]	9.6
CATCATATAAATTCAAGTACAAGAAAAAGTAATATA [XGTACX_site2383]	9.36
ACAAAATTGAAATTCACACAAAAACTATACTTTTTA [CACACA_site4638]	9.19
ATATCTACTTTTTTATGTACGAAAAAAATACGGATT [XGTACX_site8937]	9.11
AAAAAAAAAAAAATGTGGACACAATTGTGTGTTTGT [XGTACX_site3563]	9.7
TTTTTGTTAAAATAAATATTATAAATATATTAATAT [TGCATGCA_negctrl_site239]	8.77
TACATATTTTATAGCACACAAATAATAATATGTAGT [CACACA_site688]	9.35
GTTGTGGAAAGAAGTTGTACATAAAATATTATATAA [XGTACX_site4352]	9.06
AGGCCTTTTAGTATTTCACACACGTAAATGCGTATA [CACACA_site1108]	9.29
CATAAAAATGAACATACACACATATATATATATATA [CACACA_site2498]	9.47
TTGCTTTCTTTTTTTTGTACTCATATCTACTATCAT [XGTACX_site7711]	9.65
CGAGCAAGACGGGGTGCACACAAACTAATATGCCGA [CACACA_site7936]	9.48
TACCTTTATTAATAAAGTACATTAATCTGTGTATAC [XGTACX_site8720]	9.09
